Whole data set: some 81,000 sequences, median “one-hybrid fitness for binding NBS DNA” near -0.1, cut for the highest 2% near 0.36. This is one part of the list.

First the molecules themselves.
B1: Caulobacter ParB omega fusion; a variant is named by its letters at X, in order, B8GW30 (parent)
chain: MESVVVGEPGMSEGRRGLGRGLSALLGEVDAAPAQAPGEQLGGSREAPIEILQRNPDQPRRTFREEDLEDLSNSIREKGVLQPILVRPSPDTAGEYQIVAGERAWRAAQRAGLKTVPIMVRELDDLAVLEIGIIENVQRADLNVLEEALSYKVLMEKFERTQENIAQTIGKSXSHVANXMRLLXLPDEVQSYLVSGELTAXHARAIAAAADPVALAKQIIEGGLSVRETEALARKAPNLSAGKSKGGRPPRVKDTDTQALESDLSSVLGLDVSIDHRGSTGTLTITYATLEQLDDLCNRLTRGI

Variants of B1 are the subject of this experiment. The experiment is described as follows: one-hybrid fitness for binding NBS DNA (the Noc-binding site; scaled: cognate 1, non-cognate 0); higher = stronger binding. The note with it: with NBS DNA site. The method, boiled down: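 Bacterial one-hybrid selection in E. coli USO rpoZ- hisB- pyrF- with a HIS3 reporter carrying the site 19 bp from the promoter, screening Caulobacter ParB libraries with four specificity codons randomised (NNS). Cells grew 48 hours at 37°C on M9-minus-histidine plus 0.1 mM IPTG and 5 mM 3-AT. Plasmids before and after selection were Illumina-sequenced, three replicate libraries pooled, and variants under 10 reads dropped. Fitness is the log change in variant-to-wild-type read ratio, rescaled to cognate 1, non-cognate 0.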
Consider YVWG, for which the “one-hybrid fitness for binding NBS DNA” value is at most 0.2.
The figure for FWNS is at most 0.2.
With VDQS the figure was at most 0.2; with PKVC, at most 0.2.
On to FLPV, for which the “one-hybrid fitness for binding NBS DNA” value was at most 0.2.
With QNKC the figure was at most 0.2; with IERT, at most 0.2.
Regarding ESRI, the “one-hybrid fitness for binding NBS DNA” value was at most 0.2.
The figure for RMCF is at most 0.2; for RKLR it is 0.525; for QPTQ it is at most 0.2.
Regarding CQAF, the “one-hybrid fitness for binding NBS DNA” value was at most 0.2.
With TGEL the figure was at most 0.2.
With TYWR the figure was at most 0.2; with RNVT, at most 0.2; with ETVG, at most 0.2.
In the case of TMYC, the “one-hybrid fitness for binding NBS DNA” value was at most 0.2.
With CAPF the figure was at most 0.2; with QYTH, 0.202.
With AHHR the figure was at most 0.2; with TPGI, at most 0.2.
The figure for IKTH is at most 0.2; for VSQH it is at most 0.2.
Turning to QIFS, the “one-hybrid fitness for binding NBS DNA” value was at most 0.2.
The figure for SKFM is at most 0.2; for SREY it is at most 0.2.
With YAKR the figure was at most 0.2.
The figure for RQEI is at most 0.2; for PLPG it is at most 0.2; for SLFS it is at most 0.2.
Consider TLAE, for which the “one-hybrid fitness for binding NBS DNA” value was at most 0.2.
The figure for MLMR is at most 0.2.
The figure for TEPN is at most 0.2.
The figure for QIRG is at most 0.2; for TTRC it is at most 0.2; for HVEC it is at most 0.2.
With AMWT, the “one-hybrid fitness for binding NBS DNA” value is at most 0.2.
Regarding SQGV, the “one-hybrid fitness for binding NBS DNA” value is at most 0.2.
Take AWLK: the “one-hybrid fitness for binding NBS DNA” value is at most 0.2.
Consider VVGM, for which the “one-hybrid fitness for binding NBS DNA” value is at most 0.2.
The figure for TMRW is at most 0.2.
With LGVV, the “one-hybrid fitness for binding NBS DNA” value is at most 0.2.
The figure for ALCW is at most 0.2.
The figure for HTIL is at most 0.2.
On to ATRM, for which the “one-hybrid fitness for binding NBS DNA” value is at most 0.2.
On to IEDS, for which the “one-hybrid fitness for binding NBS DNA” value was at most 0.2.
With LMDW, the “one-hybrid fitness for binding NBS DNA” value is at most 0.2.
As to CLQI, the “one-hybrid fitness for binding NBS DNA” value was at most 0.2.
The figure for VHNC is at most 0.2; for GVMA it is at most 0.2; for PVSH it is at most 0.2.
With HLVT the figure was at most 0.2; with QRLK, 0.329.
With LQYH, the “one-hybrid fitness for binding NBS DNA” value is at most 0.2.
The figure for LCTY is at most 0.2; for KRAI it is at most 0.2.
The figure for QINT is 0.462; for YQND it is at most 0.2; for CTCS it is at most 0.2.
The figure for HRMN is at most 0.2.
Regarding KDYF, the “one-hybrid fitness for binding NBS DNA” value was at most 0.2.
With PCDT the figure was at most 0.2; with AYES, at most 0.2; with QHYA, 0.291.
Turning to YGSS, the “one-hybrid fitness for binding NBS DNA” value was at most 0.2.
The figure for PTHR is at most 0.2; for CTRW it is at most 0.2; for GRET it is at most 0.2.
With NPNY the figure was at most 0.2.
LALL: the “one-hybrid fitness for binding NBS DNA” value is at most 0.2.
With VSWE the figure was at most 0.2.
With EQRL, the “one-hybrid fitness for binding NBS DNA” value was at most 0.2.
With WIER the figure was at most 0.2.
With GHEG the figure was at most 0.2.
The figure for PYTE is at most 0.2.
Consider LKTS, for which the “one-hybrid fitness for binding NBS DNA” value was at most 0.2.
With QYQI, the “one-hybrid fitness for binding NBS DNA” value is at most 0.2.

For the origin of these results see a collection of fitness landscapes (doi:10.1016/j.celrep.2020.107928).
